According to article PMC10163088:
These are yes or no findings as the source states them, for the method shown. Binding seen in cells or lysates may run through a third protein. Some entries that bind do so weakly or less than the wild type. For part of these data: Sequences can lack the tags named with a protein.

Amino acid sequences for entries named in this document (tags omitted).
UniProt P26343: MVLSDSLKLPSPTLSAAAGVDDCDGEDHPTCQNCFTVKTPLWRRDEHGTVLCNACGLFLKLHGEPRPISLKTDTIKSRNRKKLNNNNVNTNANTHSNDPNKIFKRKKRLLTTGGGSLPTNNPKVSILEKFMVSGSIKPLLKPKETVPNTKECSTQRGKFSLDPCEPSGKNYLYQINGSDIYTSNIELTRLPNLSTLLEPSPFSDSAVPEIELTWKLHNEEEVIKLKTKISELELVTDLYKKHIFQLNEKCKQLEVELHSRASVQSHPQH
UniProt P22579: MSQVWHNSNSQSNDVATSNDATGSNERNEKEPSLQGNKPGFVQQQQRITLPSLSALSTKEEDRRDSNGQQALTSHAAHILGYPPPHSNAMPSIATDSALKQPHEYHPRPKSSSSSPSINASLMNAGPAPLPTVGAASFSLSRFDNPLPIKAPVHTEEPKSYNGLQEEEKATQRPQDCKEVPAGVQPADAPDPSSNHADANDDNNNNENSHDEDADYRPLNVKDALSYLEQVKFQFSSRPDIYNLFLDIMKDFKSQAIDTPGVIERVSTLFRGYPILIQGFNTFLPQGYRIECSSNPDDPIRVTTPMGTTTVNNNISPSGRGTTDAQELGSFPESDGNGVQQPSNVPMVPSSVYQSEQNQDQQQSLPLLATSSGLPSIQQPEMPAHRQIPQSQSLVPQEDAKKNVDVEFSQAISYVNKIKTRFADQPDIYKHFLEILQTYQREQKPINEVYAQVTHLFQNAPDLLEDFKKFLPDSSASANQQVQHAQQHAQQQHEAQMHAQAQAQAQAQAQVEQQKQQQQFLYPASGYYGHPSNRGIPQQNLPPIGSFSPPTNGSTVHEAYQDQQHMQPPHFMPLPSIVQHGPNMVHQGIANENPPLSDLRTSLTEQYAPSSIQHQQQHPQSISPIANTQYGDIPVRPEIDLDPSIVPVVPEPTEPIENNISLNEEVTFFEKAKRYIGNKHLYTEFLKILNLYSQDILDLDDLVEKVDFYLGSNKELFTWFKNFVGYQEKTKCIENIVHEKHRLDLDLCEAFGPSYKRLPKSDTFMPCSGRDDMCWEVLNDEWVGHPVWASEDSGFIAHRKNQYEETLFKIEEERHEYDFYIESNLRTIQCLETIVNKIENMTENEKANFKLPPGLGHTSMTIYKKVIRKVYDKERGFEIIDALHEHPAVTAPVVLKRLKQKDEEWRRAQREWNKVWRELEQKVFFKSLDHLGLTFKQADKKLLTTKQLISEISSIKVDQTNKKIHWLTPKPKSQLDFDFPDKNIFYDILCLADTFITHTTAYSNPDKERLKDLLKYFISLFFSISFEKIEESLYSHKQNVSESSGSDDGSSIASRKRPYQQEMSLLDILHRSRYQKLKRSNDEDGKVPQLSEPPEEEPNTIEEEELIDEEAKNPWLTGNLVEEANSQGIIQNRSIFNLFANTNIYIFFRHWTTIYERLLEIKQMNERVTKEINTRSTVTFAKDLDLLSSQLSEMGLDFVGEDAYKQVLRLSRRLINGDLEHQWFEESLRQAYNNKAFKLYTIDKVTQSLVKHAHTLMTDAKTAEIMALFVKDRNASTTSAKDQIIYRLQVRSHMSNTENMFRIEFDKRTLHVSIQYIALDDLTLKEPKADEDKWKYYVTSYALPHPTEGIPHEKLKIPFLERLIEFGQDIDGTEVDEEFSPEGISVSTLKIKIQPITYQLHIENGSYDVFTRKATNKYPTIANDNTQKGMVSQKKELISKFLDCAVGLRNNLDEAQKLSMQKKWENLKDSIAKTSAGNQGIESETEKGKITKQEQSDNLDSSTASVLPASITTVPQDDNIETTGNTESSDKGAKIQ
UniProt P16649: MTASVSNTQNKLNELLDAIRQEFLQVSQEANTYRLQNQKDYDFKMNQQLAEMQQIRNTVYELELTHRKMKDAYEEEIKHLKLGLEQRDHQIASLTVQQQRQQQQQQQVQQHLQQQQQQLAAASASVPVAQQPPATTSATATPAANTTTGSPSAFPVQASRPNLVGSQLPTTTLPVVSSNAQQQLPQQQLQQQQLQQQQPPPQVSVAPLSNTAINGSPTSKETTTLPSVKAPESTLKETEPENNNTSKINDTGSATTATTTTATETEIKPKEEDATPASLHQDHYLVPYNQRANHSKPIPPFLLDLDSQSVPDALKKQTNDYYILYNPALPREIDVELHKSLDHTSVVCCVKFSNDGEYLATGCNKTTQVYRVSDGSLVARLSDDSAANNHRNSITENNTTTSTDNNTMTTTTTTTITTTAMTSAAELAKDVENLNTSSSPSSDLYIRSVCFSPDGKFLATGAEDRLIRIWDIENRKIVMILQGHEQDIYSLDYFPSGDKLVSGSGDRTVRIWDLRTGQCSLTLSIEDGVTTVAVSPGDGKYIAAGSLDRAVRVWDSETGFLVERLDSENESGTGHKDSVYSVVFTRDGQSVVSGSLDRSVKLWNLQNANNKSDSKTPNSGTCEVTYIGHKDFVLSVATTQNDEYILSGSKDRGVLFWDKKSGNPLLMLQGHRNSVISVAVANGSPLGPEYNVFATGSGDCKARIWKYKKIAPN

What was measured:
Assay in all cases: pull-down; GST fusions of repressors (full-length or length variants) immobilised on GSH sepharose, incubated with bacterial total protein extracts containing HA-tagged Sin3, Cyc8 or Tup1 (or Tup1 length variants); elution with free GSH, anti-HA blot (Figs. 1, 3, 4, 5); only the target purified
[1] = biological target: T1, GST-Mth1 (full-length) (S. cerevisiae) (UniProt P35198)
T1 sequence: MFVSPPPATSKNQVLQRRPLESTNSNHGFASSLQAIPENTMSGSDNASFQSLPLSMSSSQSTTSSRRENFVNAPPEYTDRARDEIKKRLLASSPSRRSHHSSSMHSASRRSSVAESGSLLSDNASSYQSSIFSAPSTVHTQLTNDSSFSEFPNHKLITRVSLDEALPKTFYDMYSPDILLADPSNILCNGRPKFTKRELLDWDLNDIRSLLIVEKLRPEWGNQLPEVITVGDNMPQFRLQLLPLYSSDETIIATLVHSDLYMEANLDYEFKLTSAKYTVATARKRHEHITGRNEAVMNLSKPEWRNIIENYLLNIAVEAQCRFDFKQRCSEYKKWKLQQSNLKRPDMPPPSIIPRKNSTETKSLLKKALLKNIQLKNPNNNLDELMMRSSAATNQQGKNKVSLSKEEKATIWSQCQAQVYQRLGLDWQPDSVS

[2] = biological target: GST-Dal80 (full-length) (S. cerevisiae) (UniProt P26343)
[3] = biological target: T2, GST-Xbp1 (full-length) (S. cerevisiae) (UniProt P40489)
T2 sequence: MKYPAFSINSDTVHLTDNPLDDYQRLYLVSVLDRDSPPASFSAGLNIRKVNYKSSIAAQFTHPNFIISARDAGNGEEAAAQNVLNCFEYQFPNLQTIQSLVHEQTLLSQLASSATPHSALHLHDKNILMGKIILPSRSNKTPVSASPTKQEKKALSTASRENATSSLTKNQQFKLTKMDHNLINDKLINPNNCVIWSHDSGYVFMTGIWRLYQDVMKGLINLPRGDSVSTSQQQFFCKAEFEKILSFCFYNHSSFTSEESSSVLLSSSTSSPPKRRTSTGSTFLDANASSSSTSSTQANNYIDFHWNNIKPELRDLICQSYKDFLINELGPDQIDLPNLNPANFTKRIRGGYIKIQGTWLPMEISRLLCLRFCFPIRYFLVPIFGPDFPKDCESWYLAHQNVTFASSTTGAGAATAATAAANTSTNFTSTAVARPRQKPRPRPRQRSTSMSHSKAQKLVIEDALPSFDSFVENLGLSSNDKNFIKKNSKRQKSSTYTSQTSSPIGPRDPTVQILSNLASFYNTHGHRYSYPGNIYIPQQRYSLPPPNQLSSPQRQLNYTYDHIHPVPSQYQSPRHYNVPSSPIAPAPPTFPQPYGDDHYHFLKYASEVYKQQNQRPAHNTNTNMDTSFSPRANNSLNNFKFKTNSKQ

[4] = biological target: T3, GST-Gal80 (full-length) (S. cerevisiae) (UniProt P04387)
T3 sequence: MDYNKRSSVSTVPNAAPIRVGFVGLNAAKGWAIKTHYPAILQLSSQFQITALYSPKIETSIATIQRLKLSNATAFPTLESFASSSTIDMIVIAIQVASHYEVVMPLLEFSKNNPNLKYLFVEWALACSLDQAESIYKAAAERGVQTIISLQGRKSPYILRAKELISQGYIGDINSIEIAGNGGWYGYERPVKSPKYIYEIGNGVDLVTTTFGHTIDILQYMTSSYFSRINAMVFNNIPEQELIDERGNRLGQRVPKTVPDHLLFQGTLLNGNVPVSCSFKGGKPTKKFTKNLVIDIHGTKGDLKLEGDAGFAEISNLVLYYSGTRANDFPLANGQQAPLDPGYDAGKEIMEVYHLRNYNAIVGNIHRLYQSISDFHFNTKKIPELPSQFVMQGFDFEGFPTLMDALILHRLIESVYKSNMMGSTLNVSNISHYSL

[5] = biological target: T4, GST-Ure2 length variant aa 1-105 (S. cerevisiae)
T4 sequence: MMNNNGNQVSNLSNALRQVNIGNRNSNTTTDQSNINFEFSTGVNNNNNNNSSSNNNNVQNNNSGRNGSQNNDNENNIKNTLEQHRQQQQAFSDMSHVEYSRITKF

[6] = biological target: T5, GST-Ure2 length variant aa 106-228 (S. cerevisiae) (UniProt P23202)
T5 sequence: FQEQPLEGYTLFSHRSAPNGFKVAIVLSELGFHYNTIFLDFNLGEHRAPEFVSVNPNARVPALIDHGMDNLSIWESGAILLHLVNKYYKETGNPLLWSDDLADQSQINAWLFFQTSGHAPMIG

Molecule: HA3-Sin3 (full-length, aa 1-1536; pSW11) (from UniProt P22579 1-1536)
- binding [1]: no binding
- binding [2]: binds
- binding [3]: binds

Molecule: HA3-Tup1 (full-length; pFK76) (from UniProt P16649 1-713)
- binding [4]: binds
- binding [1]: no binding
- binding [5]: binds
- binding [2]: binds
- binding [3]: no binding
- binding [6]: no binding

B1: HA3-Cyc8 (aa 1-398 with 10 TPR motifs; pFK77) (domain or fragment, UniProt P14922 1-398)
chain: MNPGGEQTIMEQPAQQQQQQQQQQQQQQQQAAVPQQPLDPLTQSTAETWLSIASLAETLGDGDRAAMAYDATLQFNPSSAKALTSLAHLYRSRDMFQRAAELYERALLVNPELSDVWATLGHCYLMLDDLQRAYNAYQQALYHLSNPNVPKLWHGIGILYDRYGSLDYAEEAFAKVLELDPHFEKANEIYFRLGIIYKHQGKWSQALECFRYILPQPPAPLQEWDIWFQLGSVLESMGEWQGAKEAYEHVLAQNQHHAKVLQQLGCLYGMSNVQFYDPQKALDYLLKSLEADPSDATTWYHLGRVHMIRTDYTAAYDAFQQAVNRDSRNPIFWCSIGVLYYQISQYRDALDAYTRAIRLNPYISEVWYDLGTLYETCNNQLSDALDAYKQAARLDVNN
- binding [4]: binds
- binding [1]: no binding
- binding [5]: binds
- binding [2]: binds
- binding [3]: no binding
- binding [6]: no binding
